Results taken from ChEMBL document CHEMBL4888484, “Replenishing the malaria drug discovery pipeline: Screening and hit evaluation of the MMV Hit Generation Library 1 (HGL1) against asexual blood stage Plasmodium falciparum ,using a nano luciferase reporter read-out” (2022).
The whole screen tested about 150,000 compounds, of which about 540 (0.36%) showed an effect of 50% or more. The list shows a part of the results.

Each compound was assayed on Plasmodium falciparum (assay: Primary screen in NF54 nanoGlo assay, in single point, at 2uM, 72h; a lower Z score goes with more inhibition). Conditions: timepoint 72 hour.
Format: functional, Erythrocyte

Row | SMILES | % Inhibition [%] | Z score
1 | COc1ccc(OC)c(-c2c([C@@H]3c4ccccc4C(=O)N3Cc3ccc(F)cc3)c3ccccc3n2C)c1 | 11 | -1.31
2 | CC(C)[C@H]1C(=O)NCCN1S(=O)(=O)c1ccc(Cl)s1 | -19 | 2.56
3 | c1cncc(CN2CCN(C3CCCCCC3)CC2)c1 | 30 | -4.41
4 | Cc1cc(CN2CCCCC2)cc(C)c1Oc1cncc(C(=O)N(C)C)n1 | -5 | 0.74
5 | Cc1ccc2[nH]c3c(=O)n(CC(=O)NC4CCCCC4)ncc3c2c1 | -1 | 0.16
6 | Cc1cc(NC(=O)CCc2ccco2)n(-c2cc(C(F)(F)F)ccc2Cl)n1 | -9 | 0.95
7 | CC[C@H](C)NC(=O)NCc1nnc(C(=O)Nc2ccc3c(c2)OCO3)s1 | 15 | -1.71
8 | CN(C(=O)c1cccc(-c2n[nH]c(C3CCCCC3)n2)c1)[C@H]1COC[C@@H]1O | -9 | 1.47
9 | Cc1ccc(NC(=O)NCCS(=O)(=O)N(C)C)c(C)n1 | -8 | 0.9
10 | CC(C)C[C@H](NC(=O)c1cc(=O)[nH]c(=O)[nH]1)c1ncnn1C | -4 | 0.59
11 | COCCNC(=O)CCN(CCOC)C(=O)c1cc(-c2c(C)cc(C)cc2C)on1 | -12 | 2.09
12 | CC(=O)c1cccc(S(=O)(=O)N2CCN(CCn3nc(C)cc3C)CC2)c1 | -6 | 1.04
13 | CS(=O)(=O)[C@H]1CCCN(C(=O)NCCOC2CCCCCC2)CC1 | -5 | 0.69
14 | CCN1CC[C@H](CNc2ccc3cccc(Cl)c3n2)C1 | 1 | -0.1
15 | CC(C)CN1C[C@H](OCc2cccnc2)CN(C(=O)CCc2cccs2)CC1=O | 10 | -1.35
16 | CCCN(CCC1=CCCCC1)C(=O)c1cc(C(F)F)n[nH]1 | -16 | 2.65
17 | FC(F)(F)c1cc([C@H]2CCCN(CCOCC3CC3)C2)n[nH]1 | -3 | 0.52
18 | Cn1ccc(C(=O)Nc2cc3c(cc2Br)CCC3)cc1=O | -11 | 1.39
19 | O=C(c1cccc(CN2CCC(Cc3ccccc3)CC2)c1)N1CCCC1 | -9 | 1.16
20 | O=C(c1nnn(-c2ccccc2Cl)c1-c1cccnc1)N1CCC(Cc2ccccc2)CC1 | 40 | -5.19
21 | Cc1nnc(NC(=O)NCCC(=O)NC2CCCC2)s1 | 5 | -0.64
22 | CCN(CC)CC(=O)NCc1cc2c(nc1OC)CN(C1CCCC1)C2=O | 8 | -0.85
23 | O=C(NCc1cccnc1)C1CCCC1 | 4 | -0.57
24 | CCc1nnc(CNC(=O)[C@H]2C[C@@H](c3ccccc3)N3CCC[C@H]23)o1 | -15 | 2.29
25 | CC(=O)Nc1ccncc1NC(=O)[C@@H]1CCO[C@H]1C1CC1 | -12 | 2.27
26 | CN(CC1=CCCOC1)c1ncc(C#N)cc1Cl | -9 | 1.08
27 | NC[C@@H](CO)Cc1ccccc1C(F)(F)F | -10 | 1.33

Row | SMILES | % Inhibition [%] | Z score
28 | Cc1cc(C(=O)N2CC(c3ccccc3)C3CCCC32)no1 (stereo unspecified) | -11 | 1.64
29 | O=C(Cn1c(=O)c2sccc2n(CC(=O)Nc2ccc3c(c2)OCO3)c1=O)Nc1ccc(F)cc1 | -4 | 0.6
30 | CCn1c(C)nnc1CS(=O)(=O)Cc1cccc2ccccc12 | -9 | 1.15
31 | CCCc1nnc(C(=O)N2C[C@H](OC(C)C)[C@@H](O)C2)o1 | -3 | 0.36
32 | CCn1c(=O)c2ccn(CC(=O)Nc3cc(OC)c(OC)c(OC)c3)c2n(CC)c1=O | -20 | 2.04
33 | Cc1ccc(-c2noc([C@H]3CCc4cncn4C3)n2)cc1 | 6 | -1.25
34 | C/C=C/Cc1nnc(C(=O)N(C)C[C@H]2CCCN2C)o1 | -4 | 0.54
35 | COC(=O)c1ccc(N[C@@H](C)c2ccc(F)cc2)nn1 | 1 | -0.09
36 | O=C1COc2ccc(S(=O)(=O)N3CCC[C@H](C(=O)N4CCCCCC4)C3)cc2N1 | -2 | 0.26
37 | CCN(CC)C(=O)Cn1c(=O)ncc2cc(S(=O)(=O)N3CCCC[C@@H]3C)ccc21 | 0 | -0.06
38 | Cc1cccc(CCC(=O)NS(=O)(=O)N(C)c2ccccc2)c1 | -13 | 1.36
39 | CCc1nc(-c2cc3ccccc3nc2N2CCN(c3ccc(OC)cc3)CC2)no1 | -11 | 2.05
40 | Cc1nc(NC(=O)C2=NN(c3ccccc3)[C@H](C(N)=O)C2)sc1C | -5 | 0.76
41 | CCCc1[nH]nc(-c2ccc3c(c2)OCO3)c1NC(=O)c1ccc(Cl)cc1 | -2 | 0.19
42 | O=C(Cn1cc2c(n1)CCCCCC2)NCCc1ccc(Cl)cc1 | 6 | -0.96
43 | Cc1cc(Cl)ccc1NC(=O)c1sc2ncnc(N3CCCC3)c2c1C | -11 | 1.04
44 | Cc1ccc(Cl)cc1N1CCN(C(=O)C2CCN(c3ccc(-c4cccs4)nn3)CC2)CC1 | 0 | 0.04
45 | O=C(N1CCCc2ccccc21)C(O)(c1ccccc1)c1ccccc1 | 8 | -1.47
46 | CCc1ccc(-c2c[nH]c(NC(=O)[C@@H]3COCCO3)n2)cc1 | -4 | 0.63
47 | CCC(C)Oc1cccc(NC(=O)N2CC3C4CCC(O4)C3C2)c1 (stereo unspecified) | -13 | 1.41
48 | CCC(CC)C1CC(NS(=O)(=O)c2cnc3onc(C)c3c2)CCO1 (stereo unspecified) | 7 | -1.4
49 | CC(C)n1cc(C(=O)Nc2ccncc2)cn1 | -7 | 1.38
50 | CC[C@H](CN(C)C)NC(=O)CCc1cccc(OC(F)F)c1 | -10 | 1.69
51 | Cn1ncc(CN2CCC(CCC(=O)O)CC2)c1C(F)(F)F | -7 | 0.92
52 | COCCn1c(-c2cc(C)cs2)nnc1N1CCC(OC)CC1 | 2 | -0.39
53 | N#Cc1ccc(CN2CCC(Oc3cccc(F)c3)(C(=O)O)CC2)cc1 | 0 | -0.01
